Experimental data reported in PubChem BioAssay (NCATS).
This is one part of the list. Shown are side measurements of this screen, not its main read-out; they come without a call. Most of these compounds were active or inconclusive in the main read-out, so they are no random draw. Potencies come from curve fits of mixed quality, noted in brackets. Bridge positions count the residues as written; N and C are the ends. Square brackets hold non-standard residues; d marks the D form. Peptide text beside a SMILES is read from it. * marks the point of attachment. ξ: configuration not given here. ξDab(CH2SO3H) = NC(CCNCS(=O)(=O)O)C(=O)O; Heptanoyl(6-Me) = CC(C)CCCCC(=O)*; Dab = NCC[CH](N)C(=O)O

Test: qHTS Assay for Lipid Storage Modulators (AID 1519)
Settings: Drosophila S3 cells, BODIPY lipid droplet/cell ratio, laser cytometry; measured here: cell number channel AC50; cells loaded with oleic acid
In short: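 Cells seeded at 5,000 per well were treated with compounds over a concentration series and loaded with oleic acid (400 uM, as added). Lipid droplet fluorescence (488 nm excitation, 500-530 nm channel) was read by laser-scanning cytometry and normalized to 20 uM Triacsin C.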
Tags give direction and shape of the fitted curve.

Row | Structure (SMILES) | AC50
1 | Cc1nc2cnc(Oc3cccc(Cl)c3)nc2n(CCc2ccccc2)c1=O | 3.55 µM [rising, partial curve]
2 | COc1ccc2cccc(N3CCN(CCNC(=O)c4ccc(F)cc4)CC3)c2c1 | 5.01 µM [rising, full curve]
3 | Nc1ncnc2c1nc(Sc1ccc(Cl)cc1)n2[C@H]1O[C@@H]2COP(=O)(O)O[C@H]2[C@@H]1O | 12.6 µM [falling, partial curve, poor fit]
4 | FC(F)(F)c1ccccc1-c1cncnc1NCc1ccccc1 | 12.6 µM [rising, partial curve, poor fit]
5 | COc1ccccc1N1CCN(C[C@@H]2CN3C(=O)N(C)c4ccccc4C3=N2)CC1 | 2.82 µM [rising, full curve]
6 | COc1ccc(C(=O)N2CCC[C@@]3(CCN(c4cccc(-c5ccccc5)c4)C3)C2)cc1 | 7.08 µM [rising, single point]
7 | O=c1cnc2cnc(N3CCOCC3)nc2n1Cc1ccc(F)cc1 | 1.41 µM [rising, full curve, poor fit]
8 | CN1CCc2cccc3c2[C@H]1Cc1ccc(O)c(O)c1-3 | 12.6 µM [rising, partial curve, poor fit]
9 | COc1ccccc1-c1cncnc1NCc1cnc(C)cn1 | 2.82 µM [rising, full curve, poor fit]
10 | CN1CCN2c3ccccc3Cc3ccccc3[C@@H]2C1 | 12.6 µM [rising, partial curve, poor fit]
11 | NC1(C(=O)O)CCCCC1 | 1.12 µM [falling, full curve, poor fit]
12 | CCNc1ncc2nc(-c3cn(C)c4ccccc34)c(=O)n(Cc3ccc(F)cc3)c2n1 | 0.355 µM [rising, full curve, poor fit]

Same assay, conditions: Drosophila S3 cells, BODIPY lipid droplet/cell ratio, laser cytometry; measured here: lipid (BODIPY) channel AC50; cells loaded with oleic acid

Row | Structure (SMILES) | AC50
13 | CNCC(O)c1cccc(O)c1 (configuration not stated) | 39.8 µM [rising, single point]
14 | CN(C)c1ncc2nc(-c3ccc(F)cc3)c(=O)n(CCC#N)c2n1 | 0.0224 µM [rising, full curve, poor fit]
15 | Cc1noc(C)c1-c1nc(Nc2ccc(F)cc2)c2ccccc2n1 | 0.355 µM [rising, full curve]
16 | COc1cc(O)c2c(=O)cc(-c3ccccc3)oc2c1 | 12.6 µM [rising, partial curve]
17 | COc1ccccc1CNc1ccnc(-c2ccccc2Cl)n1 | 3.16 µM [rising, full curve, poor fit]
18 | COc1cc(O)c2c(=O)cc(-c3ccc(OC)c(-c4c(O)cc(O)c5c(=O)cc(-c6ccc(O)cc6)oc45)c3)oc2c1 | 39.8 µM [falling, single point]
19 | Cc1cnc(CNc2ccnc(-c3cccnc3)n2)cn1 | 2.51 µM [rising, full curve, poor fit]
20 | Cc1ccccc1-c1nc(N(C)C)c2ccccc2n1 | 1.26 µM [rising, full curve, poor fit]
21 | COC(=O)C(C)(N)Cc1ccc(O)cc1 (configuration not stated) | 2.51 µM [falling, full curve, poor fit]
22 | O=C(c1cccc(F)c1)N1CCC[C@@]2(CCN(Cc3ccncc3)C2)C1 | 0.0501 µM [rising, full curve, poor fit]
23 | COc1cc2cc(Oc3ccc4ccc(=O)oc4c3)c(=O)oc2cc1O | 31.6 µM [rising, partial curve]
24 | CCc1ccc2c(-c3cccc(Cl)c3)nc(=O)n(CC)c2n1 | 0.112 µM [rising, full curve]
25 | c1cncc(-c2cc(-n3ccnc3)ncn2)c1 | 1.58 µM [rising, full curve]
26 | Cc1cnc(CNc2nc(-c3ccccc3C(F)(F)F)nc3ccccc23)cn1 | 1 µM [rising, full curve]
27 | Cc1nc2cnc(Oc3ccccc3)nc2n(Cc2cccs2)c1=O | 8.91 µM [rising, partial curve]
28 | COc1ccc2c(=O)cc(-c3ccccc3)oc2c1O | 31.6 µM [rising, partial curve]
29 | CN(C)c1ncc2nc(CCc3ccccc3)c(=O)n(CCc3ccccc3)c2n1 | 1.58 µM [rising, partial curve, poor fit]
30 | COc1ccc(CNc2ccnc(-c3ccccc3Cl)n2)c(OC)c1 | 2.24 µM [rising, partial curve, poor fit]
31 | O=c1cnc2cnc(Oc3ccccc3)nc2n1Cc1ccc(F)cc1 | 17.8 µM [rising, partial curve, poor fit]
32 | COc1ccccc1CCn1c(=O)c(CCc2ccccc2)nc2cncnc21 | 0.708 µM [rising, full curve]

Row | Structure (SMILES) | AC50
33 | O=c1c(O)c(-c2cccc(O)c2)oc2ccccc12 | 4.47 µM [rising, full curve]
34 | Cc1cnc(CNc2nc(-c3ccccc3Cl)nc3ccccc23)cn1 | 1.41 µM [rising, full curve]
35 | CCC(C)C1NC(=O)C(CCNCS(=O)(=O)O)NC(=O)C(NC(=O)C(CCNCS(=O)(=O)O)NC(=O)C(NC(=O)C(CCNCS(=O)(=O)O)NC(=O)CCCCC(C)C)C(C)O)CCNC(=O)C(C(C)O)NC(=O)C(CCNCS(=O)(=O)O)NC(=O)C(CCNCS(=O)(=O)O)NC(=O)C(C(C)CC)NC1=O (configuration not stated) ({Heptanoyl(6-Me)}-[ξDab(CH2SO3H)]T[ξDab(CH2SO3H)][Dab][ξDab(CH2SO3H)]II[ξDab(CH2SO3H)][ξDab(CH2SO3H)]T; lactam 4-C; configuration not given here) | 35.5 µM [rising, partial curve]
36 | C[N+](C)(C)CCOC(=O)CCC(=O)OCC[N+](C)(C)C | 8.91 µM [falling, full curve, poor fit]
37 | COc1ccc2c(c1OC)C(=O)O[C@H]2C1c2c(cc3c(c2OC)OCO3)CCN1C (some centres not stated) | 3.16 µM [rising, partial curve, poor fit]
38 | COCCn1c(=O)c(-c2cccc(F)c2)nc2cncnc21 | 11.2 µM [rising, partial curve, poor fit]
39 | CCOC(=O)C1=C(N)Oc2ccc(Br)cc2[C@@H]1[C@@H](C#N)C(=O)OCC | 7.94 µM [rising, partial curve]
40 | CSC(=N)N | 1.26 µM [rising, full curve, poor fit]
41 | Cc1nc2cnc(Oc3cccc(Cl)c3)nc2n(CCc2ccccc2)c1=O | 0.0398 µM [rising, full curve, poor fit]
42 | COc1ccc2cccc(N3CCN(CCNC(=O)c4ccc(F)cc4)CC3)c2c1 | 5.62 µM [rising, full curve]
43 | Nc1ncnc2c1nc(Sc1ccc(Cl)cc1)n2[C@H]1O[C@@H]2COP(=O)(O)O[C@H]2[C@@H]1O | 12.6 µM [falling, partial curve, poor fit]
44 | FC(F)(F)c1ccccc1-c1cncnc1NCc1ccccc1 | 8.91 µM [rising, partial curve, poor fit]
45 | COc1ccccc1N1CCN(C[C@@H]2CN3C(=O)N(C)c4ccccc4C3=N2)CC1 | 2.82 µM [rising, full curve]
46 | COc1ccc(C(=O)N2CCC[C@@]3(CCN(c4cccc(-c5ccccc5)c4)C3)C2)cc1 | 35.5 µM [falling, single point]
47 | O=c1cnc2cnc(N3CCOCC3)nc2n1Cc1ccc(F)cc1 | 1.26 µM [rising, full curve]
48 | CN1CCc2cccc3c2[C@H]1Cc1ccc(O)c(O)c1-3 | 14.1 µM [rising, partial curve, poor fit]
49 | COc1ccccc1-c1cncnc1NCc1cnc(C)cn1 | 2.82 µM [rising, full curve, poor fit]
50 | CN1CCN2c3ccccc3Cc3ccccc3[C@@H]2C1 | 3.98 µM [rising, single point]
51 | NC1(C(=O)O)CCCCC1 | 2.82 µM [falling, full curve, poor fit]
52 | CCNc1ncc2nc(-c3cn(C)c4ccccc34)c(=O)n(Cc3ccc(F)cc3)c2n1 | 0.891 µM [rising, full curve, poor fit]
